# Laboratory results as given in paper PMC12040169 (PLOS Biology, 2025).
# The other results are listed elsewhere or left out.
# Test system: T1, C. trachomatis L2/434/Bu expressing GFP (CTL2-GFP)
# T1 construct: L2/434/Bu GFP intracellular growth in HeLa cells
# Parameters: species or system HeLa; C. trachomatis total inclusion area by high-content imaging, normalised to DMSO
# Details: total inclusion area; 28.5 h, 10 µM; inhibitor
# Excerpt: In this process, we also complemented the assay described above with an imaging-based readout (Fig 1B). After measurements of bulk GFP and resorufin fluorescence, cells were fixed, stained with the DNA dye Hoechst, and imaged at a high-content imaging platform to detect chlamydial inclusions (GFP) and host cell nuclei (Hoechst). The total area and number of inclusions in individual wells and the number of nuclei then served as additional proxies for chlamydial growth and host cell viability. […] MICs were calculated as described above.
row,Structure (SMILES),% of control remaining
1,CC1CCCN(C(=O)c2cc(S(=O)(=O)N3CCOCC3)ccc2Cl)C1 (stereo not shown) [CBK305012],82.5866
2,CCc1cc2c(=O)c(-c3nc(C)cs3)c(C)oc2cc1OCc1ccc([N+](=O)[O-])cc1 [CBK268305],92.9138
3,O=C(NCC1CCCO1)c1sc2ccccc2c1Cl (stereo not shown) [CBK058604],99.9096
4,CC(C)(C)CC(=O)N1C[C@@H]2C[C@H](C1)c1ccc(NS(=O)(=O)c3cccs3)c(=O)n1C2 [CBK288708],103.985
5,O=C(NC(Cc1cccs1)c1nccs1)C1CCOC1 (stereo not shown) [CBK285054],107.128
6,CCOC(=O)C(C)NC(=O)c1ccc2nc(C)sc2c1 (stereo not shown) [CBK282508],94.9161
7,Cc1noc(C)c1S(=O)(=O)N1CCOCC1c1cccc(F)c1 (stereo not shown) [CBK304171],92.1203
8,Cc1nc(CN2CCC3(CC2)CN(S(C)(=O)=O)c2ccccc23)cs1 [CBK126687],79.3371
9,Cn1ncnc1COc1ccc(S(=O)(=O)NC2CCCC2)cc1 [CBK306305],31.0889
10,O=C(O)C[C@]1(C(=O)Nc2ccc(F)cc2)CC(/C=C/c2ccccc2)=NO1 [CBK286608],98.0139
11,COc1cc(CN2CCC3(CC2)CN(C(=O)CO)c2ccccc23)cc(OC)c1OC [CBK131494],76.5434
12,CC(C)(C)c1ccc(-c2cnc3ncccc3c2N)cc1 [CBK083684],91.8464
13,O=C(O)c1cccc(CSc2nnc(Cc3ccccc3)[nH]2)c1 [CBK268029],105.4
14,O=C1COc2ccccc2C/C=C/C[C@H]2CN(C(=O)CN3CCN(CCO)CC3)CC[C@H]2N1 [CBK292146],75.6546
15,Cc1noc(C)c1Cc1ccc(C(=O)Nc2nc3ccccc3n2C)o1 [CBK299839],100.57
16,CN(C)C(c1ccccc1)c1nnnn1C1CCCCC1 (stereo not shown) [CBK028032],67.6368
17,Fc1ccc(OCCN2CCC3(C2)OCCc2c3[nH]c3ccccc23)cc1 (stereo not shown) [CBK061787],63.9495
18,COc1ccc(Nc2ncnc3c2c(C)c(C)n3CCO)cc1 [CBK288161],62.6496
19,Cn1cc(-c2nccnc2OCCn2cccc2)cn1 [CBK107079],102.824
20,O=C(NCCO)C1CCCN(S(=O)(=O)c2ccc3ccccc3c2)C1 (stereo not shown) [CBK270090],92.4579

row,Structure (SMILES),% of control remaining
1,CCN1CC2(CCC1=O)CCN(Cc1cccc(C(C)N(C)C)c1)CC2 (stereo not shown) [CBK307250],67.7788
2,CN(Cc1nc2c(s1)CCCC2)C(=O)COc1ccc2nncn2n1 [CBK306758],88.9036
3,COc1ccc2c(-c3ccccc3)cc(=O)n(CCS(=O)(=O)Oc3ccccc3)c2c1 [CBK296621],118.14
4,O=C(O)CCc1ccc(-c2ccc(F)cc2)n1Cc1ccco1 [CBK265953],77.6296
5,Cc1ccc(-c2nc3ncccc3o2)cc1NC(=O)c1ccc(F)cc1 [CBK263043],100.064
6,COc1ccc(NC(=O)CSc2cnn[nH]2)cc1OC [CBK270010],85.6318
7,O=C(NC(c1ccc2c(c1)CCO2)[C@H]1C[C@@H](O)C1)c1c[nH]c(=O)c(Cl)c1 (stereo partly shown) [CBK306634],92.9645
8,CCC(C)(NC(=O)c1ccn(-c2cc(C)ccc2OC)n1)C(=O)OC (stereo not shown) [CBK305282],71.4372
9,CCC(=O)NC1Cc2cccc3c2N(CCC3)C1=O (stereo not shown) [CBK010667],76.609
10,Clc1cccc(Nc2nc(Br)cn3ccnc23)c1 [CBK066260],94.602
11,CSCCC(=O)N1CCN(c2ncccn2)CC1 [CBK144509],93.9783
12,Clc1ccccc1OCCNC1CCc2[nH]c3ccccc3c2C1 (stereo not shown) [CBK107790],73.8129
13,COc1ccccc1OCc1cc(C)c(C(=O)N2CCN(C)CC2c2ccccc2)o1 (stereo not shown) [CBK286273],114.705
14,COc1ccc2c(c1)OC1(CCN(C(=O)C3CCCC3)CC1)CC2O (stereo not shown) [CBK286400],112.863
15,CCC(CC)C(=O)N1CCN(Cc2ccccc2)CCC1=O [CBK284830],90.7195
16,COc1ccc(C2C(C(=O)c3ccccc3)=C(O)C(=O)N2CCN(C)C)cc1OC (stereo not shown) [CBK263352],93.6853
17,O=C(CN1C(=O)COc2ccccc21)NC1CC1 [CBK270261],105.226
18,Cc1cccc(/C=C2/SC(=S)N(CC(=O)O)C2=O)n1 [CBK265146],78.4002
19,O=C(O)CC(NC(=O)C(c1ccccc1)c1ccccc1)c1ccco1 (stereo not shown) [CBK268729],119.775
20,COc1ccccc1N1CCN(C2CCN(Cc3ccc([N+](=O)[O-])cc3)CC2)CC1 [CBK264734G],89.5331
